Laboratory results taken from the supplement of paper PMC3334620.
In all, about 33,000 sequences were measured (“E-score (-0.5 to 0.5)”: median about -0.036, highest 2% from about 0.37 on). Some of the results follow.

biological target: T1, Yer064c (UniProt P40041); assay: PBM E-score (8-mer binding enrichment) (E-score (-0.5 to 0.5)); higher = stronger / more preferred TF binding; most listed sequences are background and not binding sites; conditions: protein concentration: 200 nM; construct: GST-full length
T1 sequence: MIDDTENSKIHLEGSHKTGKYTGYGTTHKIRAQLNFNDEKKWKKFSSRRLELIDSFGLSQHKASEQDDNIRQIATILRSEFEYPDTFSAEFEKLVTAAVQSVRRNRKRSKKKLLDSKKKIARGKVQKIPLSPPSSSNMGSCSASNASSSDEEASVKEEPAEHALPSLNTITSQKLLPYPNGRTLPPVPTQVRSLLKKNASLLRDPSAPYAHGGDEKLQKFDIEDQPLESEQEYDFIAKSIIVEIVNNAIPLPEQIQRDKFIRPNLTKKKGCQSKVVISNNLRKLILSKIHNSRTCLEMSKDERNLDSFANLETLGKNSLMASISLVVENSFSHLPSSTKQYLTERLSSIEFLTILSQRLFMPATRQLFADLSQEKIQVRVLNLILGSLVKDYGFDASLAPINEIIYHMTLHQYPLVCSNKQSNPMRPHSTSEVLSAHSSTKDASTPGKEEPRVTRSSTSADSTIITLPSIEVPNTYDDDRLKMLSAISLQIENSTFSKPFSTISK
Procedure: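 Universal 'all 10-mer' protein binding microarrays (Agilent AMADID 015681) probed with GST-tagged S. cerevisiae TFs (full-length or DBD) made by in vitro transcription/translation (PURExpress), about 100-200 nM. Bound TF was detected with fluorescent anti-GST. Each ungapped 8-mer (which stands for itself and its reverse complement) is scored by the PBM enrichment score (E-score), a modified Wilcoxon-Mann-Whitney statistic from -0.5 to +0.5, computed with the Universal PBM Analysis Suite. Scale: above 0.35 generally sequence-specific binding.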

Sequence | PBM E-score
GTCTAAAA | 0.0378
CCGGTGAG | 0.0747
GGCGAGCA | -0.157
CGCGGTTA | -0.00025
ACGTTTTG | 0.0343
GGATTGCA | 0.00697
AAAGGTGA | 0.116
ATAAACGG | -0.0207
TACATACA | 0.154
GATGATAC | 0.00049
AGAAAAGG | 0.153
GCTAATAA | 0.0571
CACCCCTG | -0.0345
ACCGTAGG | -0.346
CAGGCAGG | -0.0112
GCCCGCGC | -0.164
AATCGTCA | 0.216
CGCGTTAA | -0.0347
CGGCGACG | -0.26
CCTATCCG | -0.366
AATCGTGA | 0.2
CCTGTACG | -0.148
AGTGTCGG | -0.148
CACGTCGG | -0.247
CAATCGGA | -0.0345

Sequence | PBM E-score
GACGTATA | -0.113
ACGTCAGT | 0.0998
CACGCCAA | -0.0753
ATAAAAGC | 0.00456
GATGAGGC | -0.218
TTACCAAA | 0.0267
AGTGGTTC | 0.00487
TATTCGAA | -0.0197
CACCGGTA | 0.0582
CAGCTGTA | 0.00614
CAGAAAAC | 0.0822
ACGGCTCG | -0.117
GTCAACAC | 0.245
TGACGGCA | -0.189
CAACAGAC | 0.00774
AATGTACT | 0.00383
CTAGTCCC | -0.135
CCATCGTC | -0.0755
CACTGGTA | 0.011
ATCACTAG | 0.146
AATAGAAT | 0.123
GGTACACC | -0.185
GAGTCCAA | 0.332
GTACGCAC | -0.214
ACCGGTCA | -0.201

Sequence | PBM E-score
ATCGCCCG | -0.132
CCAGAACG | 0.0346
AGCAGGCT | -0.254
ACTTCTCT | 0.104
CTGACTTA | 0.407
AATTGCCC | -0.234
GAGACGGA | -0.12
TACCGTGA | 0.0974
CTTACATC | -0.0485
ATGGTGCA | -0.134
CTTGAGTC | 0.466
ATAGAGCG | -0.0139
ACTGTCAA | -0.0537
CACCATGA | 0.126
ATCACATA | 0.252
CAGATCTA | 0.0635
GACGGTAC | -0.135
GGATTCCA | 0.0871
CACGGGTC | -0.0881
CGCCCCTC | -0.256
GATGAGCC | 0.146
GGCTTCCA | -0.249
ATGATAAC | 0.0491
AGGTATGA | 0.188
ATGCAACG | -0.207

Sequence | PBM E-score
ACAACGTC | -0.0674
CGCGAACA | -0.0954
ATGACCGC | -0.075
CTTTCCGA | 0.081
ACTGATCA | 0.206
AATTGCTC | -0.275
GCCCGAAA | -0.127
ATAGATTA | 0.112
CCGCTTTA | -0.0889
AGACGCTG | -0.115
GGGTGTTA | 0.122
CATCGCAG | 0.0109
GCCGTCCA | -0.258
CCCTAGCG | -0.0323
GACGGAGC | -0.307
ACAATCAA | 0.202
AAATGATG | 0.0155
AACGACAA | -0.0716
AGATTATC | 0.0904
ATCGGTGA | 0.175
CACATTCG | 0.0697
AGTCCACG | 0.0376
ATTACCGA | 0.162
CTCCCTAA | -0.13
AGCGAAGG | -0.178

Sequence | PBM E-score
CCGTTATC | 0.0125
AATGCTCA | 0.0674
TACCAGAA | 0.0829
AGAAATGA | 0.185
ATGACCCC | 0.0957
ACCGACTC | 0.328
CGTTCGAC | -0.0317
AAGTAGAG | 0.00221
GGGCTGAC | 0.249
CTATTACC | -0.0237
ACGGGTAC | -0.0908
CCAGTGGC | -0.0264
TAAAATGA | 0.267
AAGGTCGG | -0.253
ACACATCT | 0.131
CCCACTAA | 0.0943
AGCTTCTA | -0.146
AATAAGTG | 0.0448
CCCAGCTC | -0.201
GAATCCTC | -0.0146
CAGAGTCC | 0.212
CGTGGCAC | -0.137
CTTTAGGC | -0.131
ACGTACAA | 0.0838
CCCTAGCC | -0.384

Sequence | PBM E-score
GCCCGGCA | -0.123
ATGGGAGG | -0.221
CTCAACGA | 0.155
ATGACGCA | 0.0538
CGGGTGTA | -0.213
TACAGCGA | -0.115
CTTGTACC | -0.169
GCTTTCCC | -0.143
AAGGTTAC | 0.0184
ATTCAATG | 0.204
AAATGGCT | 0.1
ATCGTCTC | 0.0303
ACTACTAC | 0.261
TGCATGCA | -0.0534
AGCTCGTA | -0.0144
AGCTCACT | -0.0974
CCAGCCAA | -0.202
CGTTGCTA | 0.0218
AGTTCGTG | -0.0415
AGCTATCG | -0.083
CGTGTTGA | 0.202
CTTAACGA | 0.247
CGCGGCAA | -0.203
CCTCGTAG | 0.0591
GTACTTGA | 0.0331

Sequence | PBM E-score
ATTTCATA | -0.0227
ACTACATG | 0.256
GTCAGGCA | 0.0981
ATCTACGG | -0.0418
CGGATACG | -0.0837
ACAAAGAG | -0.102
CAGTCGGC | 0.122
CAGTGATG | -0.077
AAAAAATC | 0.0353
ACTTGGAC | -0.0338
CCGCTGAG | 0.00948
GGGGGGAC | -0.213
ACCTGCCG | -0.193
ACCTTCTC | -0.0398
ATTGCGCC | -0.0109
AGCGGCTA | -0.0162
TCAATGAA | 0.196
AGACATAG | 0.166
CTATGTGA | 0.126
CGAACATA | -0.0147
AGAACACA | 0.0627
AGGTTAGC | -0.296
